According to PMC10040811:
These are yes or no findings as the source states them, for the method shown. Binding seen in cells or lysates may run through a third protein. Tags and fused reporters may be left off the sequences shown.

Protein sequences, listed by entry. Tags and fused reporters are not part of them. Lines headed by an entry give the natural chain unless they say otherwise; changes in a name come on top. Chains listed by the source or under a name are the forms on record and can include a tag or linker.
EGFP-tagged rat s-afadin (O35889, form named): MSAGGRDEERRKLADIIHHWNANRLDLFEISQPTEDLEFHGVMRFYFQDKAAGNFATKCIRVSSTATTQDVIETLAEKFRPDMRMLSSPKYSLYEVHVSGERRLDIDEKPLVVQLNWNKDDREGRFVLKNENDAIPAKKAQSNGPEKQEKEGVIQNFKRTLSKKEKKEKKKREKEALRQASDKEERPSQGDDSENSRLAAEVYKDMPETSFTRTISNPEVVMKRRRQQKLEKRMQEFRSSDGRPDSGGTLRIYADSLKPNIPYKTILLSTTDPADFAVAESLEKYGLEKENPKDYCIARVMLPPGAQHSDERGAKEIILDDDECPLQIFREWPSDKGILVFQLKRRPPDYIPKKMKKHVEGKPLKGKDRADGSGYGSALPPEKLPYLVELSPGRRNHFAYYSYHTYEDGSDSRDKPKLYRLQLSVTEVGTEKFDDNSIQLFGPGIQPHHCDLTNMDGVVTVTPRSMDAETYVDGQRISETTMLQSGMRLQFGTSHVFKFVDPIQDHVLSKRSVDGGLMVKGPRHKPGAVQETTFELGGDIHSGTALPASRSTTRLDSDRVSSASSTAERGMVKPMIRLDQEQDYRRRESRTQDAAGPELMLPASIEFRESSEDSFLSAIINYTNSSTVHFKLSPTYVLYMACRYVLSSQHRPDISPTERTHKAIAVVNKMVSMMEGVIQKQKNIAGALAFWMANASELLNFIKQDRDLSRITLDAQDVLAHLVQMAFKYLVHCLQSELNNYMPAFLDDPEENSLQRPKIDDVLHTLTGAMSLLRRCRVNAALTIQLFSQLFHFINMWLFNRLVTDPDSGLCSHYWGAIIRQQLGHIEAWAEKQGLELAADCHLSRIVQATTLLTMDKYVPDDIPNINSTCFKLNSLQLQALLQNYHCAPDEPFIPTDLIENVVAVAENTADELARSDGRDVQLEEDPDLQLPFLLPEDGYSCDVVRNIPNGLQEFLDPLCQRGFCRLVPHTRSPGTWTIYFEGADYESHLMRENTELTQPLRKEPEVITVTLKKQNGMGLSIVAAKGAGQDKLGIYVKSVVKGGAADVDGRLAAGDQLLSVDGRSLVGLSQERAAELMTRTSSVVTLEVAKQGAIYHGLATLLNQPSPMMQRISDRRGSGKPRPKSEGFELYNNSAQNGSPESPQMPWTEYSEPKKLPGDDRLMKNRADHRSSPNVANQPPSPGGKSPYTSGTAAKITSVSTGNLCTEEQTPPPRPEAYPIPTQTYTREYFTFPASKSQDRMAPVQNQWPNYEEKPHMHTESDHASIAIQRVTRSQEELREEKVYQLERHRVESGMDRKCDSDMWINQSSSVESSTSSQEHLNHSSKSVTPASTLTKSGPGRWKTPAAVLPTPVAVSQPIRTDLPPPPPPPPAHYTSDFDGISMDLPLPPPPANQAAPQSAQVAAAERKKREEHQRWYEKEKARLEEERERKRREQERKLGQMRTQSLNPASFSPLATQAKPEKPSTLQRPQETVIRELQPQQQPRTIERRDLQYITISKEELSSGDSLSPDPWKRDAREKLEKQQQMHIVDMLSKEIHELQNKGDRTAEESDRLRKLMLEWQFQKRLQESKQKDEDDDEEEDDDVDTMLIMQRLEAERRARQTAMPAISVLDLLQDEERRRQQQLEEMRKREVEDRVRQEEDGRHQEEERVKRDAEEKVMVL

Target: EGFP-tagged rat s-afadin (rat) (UniProt O35889)
Test: co-IP; HEK293 cells co-expressing EGFP-tagged afadin variants and V5-tagged MAGUIN variants; lysate in 0.25% DDM in buffer A; GFP pAb and protein-G Sepharose, 4 °C; blot with the MAGUIN pAb or V5 mAb

binding: no binding
B1: V5-tagged MAGUIN-2-N (aa 1-572) (domain or fragment, UniProt Q80YA9-1 1-572)
chain: MALIMEPVSKWSPSQVVDWMKGLDDCLQQYIKNFEREKISGDQLLRITHQELEDLGVSRIGHQELILEAVDLLCALNYGLETENLKTLSHKLNASAKNLQNFITGRRRSGHYDGRTSRKLPNDFLTSVVDLIGAAKSLLAWLDRSPFAAVTDYSVTRNNVIQLCLELTTIVQQDCTVYETENKILHVCKTLSGVCDHIISLSSDPLVSQSAHLEVIQLANIKPSEGLGMYIKSTYDGLHVITGTTENSPADRCKKIHAGDEVIQVNHQTVVGWQLKNLVNALREDPSGVILTLKKRPQSMLTSAPALLKNMRWKPLALQPLIPRSPTSSVATPSSTISTPTKRDSSALQDLYIPPPPAEPYIPRDEKGNLPCEDLRGHMVGKPVHKGSESPNSFLDQEYRKRFNIVEEDTVLYCYEYEKGRSSSQGRRESTPTYGKLRPISMPVEYNWVGDYEDPNKMKRDSRRENSLLRYMSNEKIAQEEYMFQRNSKKDTGKKSKKKGDKSNSPAHYSLLPSLQMDALRQDIMGTPVPETTLYHTFQQSSLQHKSKKKNKGAISGKSKRRISCKDLGRGD
